In PubChem BioAssay AID445 (National Center for Advancing Translational Sciences (NCATS), 2006):
Hit rate of the full screen: of about 110,000 compounds, about 40 (0.04%) were called active. Inconclusive results, whose numbers are uncertain, are shown with a selection of clear calls. Calls follow the shape of the dose curve; as a rule, active = well fitted curve in the direction sought with a large enough effect in the signal ratio (not every such curve was filed as active); inconclusive = small, poorly fitted or top-dose-only effect, or a change in a side signal; inactive = flat fitted curve, though single readings scatter; the % refers to the signal ratio. A potency beside an inconclusive call is a rough fit, not a confirmed value.

Assay: IkB Signaling;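 as to IkBa stabilization activation: 0% = basal untreated cells and 100% = reference inhibitor full response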
Settings: ABC-DLBCL IkBa-CBG/CBR dual luciferase ratio (green luciferase fused to IkBa over red control in OCI-Ly3 lymphoma cells), 4 h; IkBa stabilization activation: at 57.1 µM (top of the series), scaled: untreated 0%, proteasome inhibitor 100% unless noted
Method in brief: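 Luminescence ratio of IκBα-fused green versus native red beetle luciferase in OCI-Ly3 cells, 4 h post-doxycycline with compound; red signal alone, scaled from basal (0%) to zero light (-100%), flagged nonspecific or cytotoxic effects.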
Potency is read from the fitted curve at half-maximal effect.

Row | SMILES | IkBa stabilization activation | Potency
1 | O=C1C2C3C=CC(CO)(O3)C2C(=O)N1c1ccccc1-c1ccccc1 (stereo not given) | inconclusive: 6.12% [signal inhibitor] | 
2 | Cc1ccc(C(=O)c2cn(CC(=O)Nc3ccc4c(c3)OCCO4)c3nc(C)ccc3c2=O)cc1 | inconclusive: -0.31% [signal inhibitor] | 
3 | CCOc1ccc(Nc2c(S(=O)(=O)c3ccccc3)cnc3ccc(CC)cc23)cc1 | inconclusive: 0.387% [signal inhibitor] | 
4 | O=C(CSc1nc2ccccc2n1Cc1ccccc1)NCc1ccccc1 | inactive | 
5 | CSc1oc(-c2ccc(F)cc2)nc1S(=O)(=O)c1ccc(Br)cc1 | inconclusive: 0.392% [signal inhibitor] | 
6 | O=C(CC1Nc2ccccc2NC1=O)c1ccccc1 (stereo not given) |  | inconclusive: 5.01 µM [signal inhibitor, full curve]
7 | CC1=C(C(=O)Nc2cccnc2)C(c2ccc(F)cc2)n2nc(SCc3ccccc3)nc2N1 (stereo not given) | inconclusive: -1.85% [signal inhibitor] | 
8 | CC(=O)N1CCN(c2ccc(Oc3nc(-c4ccccc4)nc4ccccc34)cc2)CC1 | inactive | 
9 | COc1ccc(CNc2ncncc2-c2ccoc2)c(OC)c1 | inactive: 3.48% [at 11.4 µM, scaled: untreated 0%, proteasome inhibitor 100%] | 
10 | N#CCSc1nnc(Cc2cccc3ccccc23)n1C1CCCCC1 | inconclusive: 5.51% [signal inhibitor] | 
11 | CCCCNC(=O)CSc1nc2ccccc2nc1Cc1ccccc1 | inconclusive: 0.532% [signal inhibitor] | 
12 | O=C(CCc1ccc(S(=O)(=O)N2CCCCC2)cc1)c1nnc(-c2ccccc2)o1 | inconclusive: 13.8% [signal inhibitor] | 
13 | O=c1cc(N2CCN(c3ccc(F)cc3)CC2)[nH]c(=O)n1-c1cccc(Br)c1 | inactive | 
14 | N#Cc1c(SCC(N)=O)nc(-c2ccccc2)c2c1CCCC2 | inconclusive: 5.08% [signal inhibitor] | 
15 | COc1ccccc1-c1cncnc1NCCNC(C)=O | inactive: -0.438% [at 11.4 µM, scaled: untreated 0%, proteasome inhibitor 100%] | 
16 | Cc1ccc(C)c(NC(=O)C(NS(=O)(=O)c2ccc3c(c2)CCC(=O)N3)c2ccccc2)c1 (stereo not given) | inactive | 
17 | Cc1ccc(CNC(=O)C2CCN(S(=O)(=O)c3c(C)noc3/C=C/c3ccccc3F)CC2)o1 | inactive | 
18 | COc1ccc(S(=O)(=O)N(C(=O)c2ccncc2)c2ccc3oc(C)c(C(C)=O)c3c2)cc1 |  | inconclusive: 3.98 µM [signal inhibitor]
19 | Cc1ccnc(NC(c2cc(C)ccc2O)c2ccc3cccnc3c2O)c1 (stereo not given) |  | inconclusive: 7.94 µM [signal inhibitor]
20 | COc1ccc(-c2cn3c(n2)sc2cc(C(=O)NC4CCCCC4)ccc23)cc1 | inconclusive: 9.35% [signal inhibitor] | 
21 | COc1ccccc1N1CCN(Cc2cc(COC(C)C)c3cccnc3c2O)CC1 | inconclusive: 1.46% [signal inhibitor] | 
22 | CCOC(=O)C1CCCN(C(=O)Cn2nc(C)n3c(cc4c(OC)cccc43)c2=O)C1 (stereo not given) | inconclusive: 1.89% [signal inhibitor] | 
23 | CCOc1ccc(-c2nnc3sc(COc4ccc(Cl)cc4)nn23)cc1 | inactive | 
24 | Cc1ccc(Nc2c(-c3cccc(Cl)c3)nc3cccc(C)n23)cc1 | inconclusive: 2.98% [signal inhibitor] | 

Row | SMILES | IkBa stabilization activation | Potency
25 | Cc1ccc(NC(=O)CSc2nc(=O)n(CCN3CCOCC3)c3c2CCC3)cc1Cl | inconclusive: 4.59% [signal inhibitor] | 
26 | Cn1c(=O)nc2n(-c3ccc(Br)cc3)c3cccc(Cl)c3cc-2c1=O | inconclusive: -0.54% [signal inhibitor] | 
27 | CCCc1noc(-c2ccc(NCc3ccccc3OC)c([N+](=O)[O-])c2)n1 | inactive | 
28 | Cc1[nH]c2ccccc2c1SCCNC(=O)c1ccc(F)cc1 | inconclusive: 0.865% [signal inhibitor] | 
29 | CC(C)c1ccc(NC(=O)CSC2=Nc3ccccc3C3=NC(CC(=O)NCCc4ccccc4)C(=O)N23)cc1 (stereo not given) | inconclusive: -1.01% [signal inhibitor] | 
30 | COc1ccc(Cl)cc1NC(=O)c1c(NCc2cccs2)sc2c1CCC(C)C2 (stereo not given) | inconclusive: -0.963% [signal inhibitor] | 
31 | CCOc1ccccc1NC(=O)CSc1nc(-c2cccs2)cc(C(F)(F)F)n1 | inconclusive: 3.12% [signal inhibitor] | 
32 | O=C(CSc1nnc(-c2ccco2)o1)c1ccccc1 |  | inconclusive: 20 µM [signal inhibitor, single point]
33 | NCCN | inactive | 
34 | CN(Cc1ccco1)c1ccnc(-c2cccc(C#N)c2)n1 | inactive: -1.28% [at 11.4 µM, scaled: untreated 0%, proteasome inhibitor 100%] | 
35 | CN(C)C1(CNC(=O)COc2cccc(Cl)c2)CCCCC1 | inconclusive: 5.42% [signal inhibitor] | 
36 | Cc1ccccc1C(=O)Nc1ccc2nc(SCC(=O)N(C)c3ccccc3)sc2c1 | inconclusive: 7.49% [signal inhibitor] | 
37 | Cc1cccc(Cn2c(SCc3ccc(C(=O)NCc4cccs4)cc3)nc3ccncc32)c1 | inconclusive: 1.09% [signal inhibitor] | 
38 | COc1cc(N)ccc1Cc1ccc(N)cc1OC |  | inconclusive: 12.6 µM [signal inhibitor, partial curve]
39 | O=c1[nH]c(CSc2nnc(-c3ccco3)n2-c2ccccc2)nc2sc3c(c12)CCC3 | inactive | 
40 | Cc1ccc(-c2onc(C)c2C)cc1S(=O)(=O)NC1CCC(C)CC1 (stereo not given) | inconclusive: 11.8% [signal inhibitor] | 
41 | COC(=O)c1cccnc1-n1c(=O)c2cccnc2n(CC(=O)Nc2cccc(C(F)(F)F)c2)c1=O | inconclusive: -0.677% [signal inhibitor] | 
42 | FC(F)(F)c1cccc(N2CCN(Cc3nnc(-c4ccccc4)o3)CC2)c1 | inconclusive: 7.14% [signal inhibitor] | 
43 | CC(C)c1ccc(-c2noc(SCC(=O)N3CCCCC3)n2)cc1 | inconclusive: 5.65% [signal inhibitor] | 
44 | Cc1ccc(OCC(=O)Nc2cccc(C)n2)c(C)c1 | inactive | 
45 | O=C(O)c1ccc(CSc2nnnn2C2CCCCC2)cc1 | inactive | 
46 | O=C(Nc1ccc(N2CCOCC2)c(Cl)c1)c1c(F)c(F)c(F)c(F)c1F |  | inconclusive: 5.01 µM [signal inhibitor, partial curve]
47 | CCc1nc(SCC(N)=O)c2c(=O)n(C)c(=O)n(C)c2n1 | inactive | 
48 | CCOC(=O)N1CCN(c2nc(C(F)(F)F)nc3c(C)cc(C)cc23)CC1 | inconclusive: 0.462% [signal inhibitor] | 

Row | SMILES | IkBa stabilization activation | Potency
49 | Cc1cccc(Cc2c(C)nc3nc(SCC(=O)NC4CCCCC4)nn3c2C)c1 | inconclusive: 4.11% [signal inhibitor] | 
50 | Fc1ccc(-c2noc3ncnc(NCc4cccc(Cl)c4)c23)cc1 | inconclusive: -4.31% [signal inhibitor] | 
51 | CSc1cccc(NS(=O)(=O)c2ccc3[nH]cc(C(=O)N4CCCCCC4)c(=O)c3c2)c1 | inconclusive: -1.95% [signal inhibitor] | 
52 | N#CCCCSc1nnc(-c2ccc(Cl)cc2)n1-c1ccccc1 | inactive | 
53 | Cc1ccc(N2CC(NC(=O)Cc3ccc(F)cc3)CC2=O)cc1C (stereo not given) | inactive | 
54 | COc1ccc(NC(=O)c2ccco2)c(OC)c1 | inactive | 
55 | COc1ccccc1CNC(=O)c1cnn(-c2ccc(F)cc2F)c1C1CCN(C(=O)OC(C)(C)C)CC1 | inconclusive: 7.65% [signal inhibitor] | 
56 | CCN(CCCn1c(SCC#N)nc2ccccc2c1=O)c1ccccc1 | inactive | 
57 | COc1ccc(-c2nnc(SCc3nnc(-c4ccc(Cl)cc4)o3)n2-c2ccccc2)cc1 | inconclusive: 4.75% [signal inhibitor] | 
58 | O=C(Cn1c(=O)n(-c2ccccc2)c(=O)c2c3c(sc21)CCCC3)Nc1ccc(F)cc1 |  | inconclusive: 20 µM [signal inhibitor]
59 | CCC1Oc2ccccc2N(CC(=O)NCc2ccc(C)cc2)C1=O (stereo not given) | inconclusive: 2.34% [signal inhibitor] | 
60 | CCOc1ccc(C(=O)OCc2cc(=O)n3nc(C(C)C)sc3n2)cc1 | inactive | 
61 | COc1cccc(NC(=O)CN2C(=O)C3(SCC(=O)N3c3cc(C)cc(C)c3)c3ccccc32)c1 (stereo not given) | inconclusive: 3.75% [signal inhibitor] | 
62 | c1ccc(Cc2ccc(OCCn3cncn3)cc2)cc1 | inactive | 
63 | COc1ccc2cc(C(c3nnnn3CCc3ccccc3)N3CCCC(C)C3)c(=O)[nH]c2c1 (stereo not given) | inconclusive: 2.5% [signal inhibitor] | 
64 | O=C(Nc1ccc(Cl)cc1C(F)(F)F)c1cc(S(=O)(=O)NCc2ccccc2)ccc1F | inconclusive: 0.929% [signal inhibitor] | 
65 | CCc1ccc(CNC(=O)c2ccc(CS(=O)(=O)Cc3ccccc3C)o2)cc1 | inactive | 
66 | Cc1cc(C(=O)CSc2nnc(-c3cccs3)n2Cc2ccccc2)c(C)n1C | inconclusive: 1.31% [signal inhibitor] | 
67 | O=C(CSc1nccn1C1CCCC1)Nc1ccccc1 | inconclusive: -2.79% [signal inhibitor] | 
68 | CS(=O)(=O)Nc1cccc(-c2nc(N3CCNCC3)c3ccccc3n2)c1 | inactive: -2.93% [at 11.4 µM, scaled: untreated 0%, proteasome inhibitor 100%] | 
69 | COc1ccc(CNC(=O)CCS(=O)(=O)c2ccc3c(c2)CC(C)N3C(=O)C2CC2)cc1 (stereo not given) | inconclusive: 4.25% [signal inhibitor] | 
70 | O=C1c2ccccc2C(Nc2ccc(-c3nc4ccccc4[nH]3)cc2)N1Cc1ccco1 (stereo not given) | inconclusive: 1.16% [signal inhibitor] | 
